Series [1] concerns C57BL/6J mice. The series is described as follows: Locomotor activity (ambulations), CLAMS.
For series [2], the system named is C57BL/6J mice.
Series [3] deals with C57BL/6J mice. The following applies: icv; MP1207 and MP1208 up to 100 nmol, morphine 30 nmol, U50,488h 100 nmol.

Read-outs that look alike come from different tables or passages of the source.

As for `NCc1cccc(C(=O)N[C@@H]2CCC3C4Cc5ccc(O)c6c5[C@@]3(CCN4CC3CC3)C2O6)c1` (stereo partly drawn) [MP1207, 3-(Aminomethyl)-N-((7R,12bS)−3-(cyclopropylmethyl)−9-hydroxy-2,3,4,4a,5,6,7,7a-octahydro-1H-4,12-methanobenzofuro[3,2-e]isoquinolin-7-yl)benzamide], the “ambulation (locomotor effect)” value in the series with C57BL/6J mice [1] (100 nmol icv) is reported as “did not”. Besides, the “respiratory rate vs vehicle/saline” value in the series with C57BL/6J mice [2] (30 nmol icv) is given as “increased breathing rates”; with C57BL/6J mice [2] (100 nmol icv), “increased respiration at 120–160 min”. The “conditioned place preference / aversion” value in the series on C57BL/6J mice [3] is “failed to show either rewarding or aversive behavior”.

For `N=C(N)NCc1cccc(C(=O)N[C@@H]2CCC3C4Cc5ccc(O)c6c5[C@@]3(CCN4CC3CC3)C2O6)c1` (stereo partly drawn) [MP1208, N-((7R,12bS)−3-(Cyclopropylmethyl)−9-hydroxy-2,3,4,4a,5,6,7,7a-octahydro-1H-4,12-methanobenzofuro[3,2-e]isoquinolin-7-yl)−3-(guanidinomethyl)benzamide], the “respiratory rate vs vehicle” value with C57BL/6J mice [2] (35 nmol icv) is listed as “increased respiratory rate”. Also, the “conditioned place preference / aversion” value in the series with C57BL/6J mice [3] was “failed to show either rewarding or aversive behavior”.

With `CN1CC[C@]23c4c5ccc(O)c4O[C@H]2[C@@H](O)C=C[C@H]3[C@H]1C5` [Morphine, reference compound], the “ambulation (locomotor effect)” value with C57BL/6J mice [1] (30 nmol icv) is “significant hyperlocomotion”; in the series on C57BL/6J mice [1] (100 nmol icv), “significantly different”. The “respiratory rate vs vehicle/saline” value in the series on C57BL/6J mice [2] (30 nmol icv) and with C57BL/6J mice [2] (100 nmol icv) was “respiratory depression” throughout. The “respiratory rate vs saline” value in the series with C57BL/6J mice [2] (30 mg/kg IP) is “depressed respiration”. For the same compound, in the series with C57BL/6J mice [3], the “conditioned place preference / aversion” value is reported as “place preference”.

These data come from article PMC7909954 (eLife, 2021).
